Results as given in article PMC4336329 (PLoS ONE, 2015).
Among all 310,000 compounds or so, about 2,200 (0.71%) showed an effect of 50% or more. Effects have a minus sign here. The list shows a part of the results.

biological target: human ether-à-go-go-related gene (hERG) potassium channel (human, UniProt Q12809); assay: primary screen, population patch clamp on CHO cells stably expressing hERG
Sequence (Q12809 whole entry, looked up): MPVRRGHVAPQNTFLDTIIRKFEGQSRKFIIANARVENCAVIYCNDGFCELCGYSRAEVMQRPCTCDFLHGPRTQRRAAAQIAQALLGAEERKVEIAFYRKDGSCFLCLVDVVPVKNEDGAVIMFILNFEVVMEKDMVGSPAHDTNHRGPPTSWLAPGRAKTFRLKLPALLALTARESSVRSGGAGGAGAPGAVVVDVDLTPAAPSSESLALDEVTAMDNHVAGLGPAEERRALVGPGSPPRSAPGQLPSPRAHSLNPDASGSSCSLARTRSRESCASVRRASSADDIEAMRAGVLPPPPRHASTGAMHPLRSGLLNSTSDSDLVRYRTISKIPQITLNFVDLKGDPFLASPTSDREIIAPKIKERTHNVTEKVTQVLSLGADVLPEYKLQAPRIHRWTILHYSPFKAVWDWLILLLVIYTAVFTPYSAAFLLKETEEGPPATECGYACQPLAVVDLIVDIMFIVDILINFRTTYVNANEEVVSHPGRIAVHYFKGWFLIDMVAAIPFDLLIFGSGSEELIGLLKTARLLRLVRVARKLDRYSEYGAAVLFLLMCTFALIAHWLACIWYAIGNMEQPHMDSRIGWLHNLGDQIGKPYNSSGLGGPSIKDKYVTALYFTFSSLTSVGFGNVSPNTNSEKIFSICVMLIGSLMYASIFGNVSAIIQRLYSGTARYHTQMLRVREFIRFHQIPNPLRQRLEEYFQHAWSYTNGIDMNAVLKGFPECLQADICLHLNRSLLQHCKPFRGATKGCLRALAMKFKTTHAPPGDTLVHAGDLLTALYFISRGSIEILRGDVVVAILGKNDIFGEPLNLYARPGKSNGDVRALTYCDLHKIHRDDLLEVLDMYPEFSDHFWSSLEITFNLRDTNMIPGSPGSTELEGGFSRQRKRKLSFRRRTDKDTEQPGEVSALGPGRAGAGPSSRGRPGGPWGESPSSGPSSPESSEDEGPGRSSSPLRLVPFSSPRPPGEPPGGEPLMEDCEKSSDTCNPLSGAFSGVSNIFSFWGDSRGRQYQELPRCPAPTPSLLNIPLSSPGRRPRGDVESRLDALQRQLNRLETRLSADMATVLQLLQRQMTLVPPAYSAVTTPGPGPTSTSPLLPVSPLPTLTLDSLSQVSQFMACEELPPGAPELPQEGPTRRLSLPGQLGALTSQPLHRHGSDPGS

Compound	hERG current change (%, negative = inhibition) at 1uM
CC(=O)Nc1cc2c(ccc3ccccc32)oc1=O	19.8%
Cc1ccc(C(=O)Nc2nc(-c3cccnc3)cs2)o1	-9.95%
Cc1ccc(Cn2ccsc2=NC(=O)COC(=O)c2ccc(NC(=O)CC#N)cc2)cc1	1.37%
COC(=O)C(Cc1ccccc1)NC(=O)CNC(=O)c1ccc(Br)cc1 (centres unmarked)	-2.61%
Cc1cccn2c(=O)nc(SCC(=O)N3CCC(Cc4ccccc4)CC3)nc12	-69.2%
COc1cc(/C=N/Nc2cccc(C)c2)ccc1OC(=O)c1cccs1	5.87%
CCn1c(C)nc2cc(NC(=O)Nc3cccc(C(C)=O)c3)ccc21	12.4%
CCOC(=O)C1CCN(CCC(=O)Nc2ccc(Br)cc2)CC1	-33.2%
CS(=O)(=O)CCC(C(=O)O)N1C(=O)c2ccc(Oc3ccc(Cl)cc3)cc2C1=O (centres unmarked)	13.1%
CN1C=CC=C/C1=C1\SC(=S)N(Cc2ccccc2)C1=O	2.64%
COc1ccc(C2CC(c3ccccc3)=NN2C(=O)COC(=O)c2cccnc2Cl)cc1 (centres unmarked)	14.4%
O=C(NCCc1c[nH]c2ccccc12)c1cnccn1	10.7%
COC(=O)c1sc(NC(=O)CSc2nnnn2-c2cccc(OC)c2)nc1C	11.9%
CCOC(=O)N/N=C/c1c(C)c(C(=O)c2ccc(F)cc2)n2ccccc12	17%
CC1CCN(C(=O)C2CCN(S(=O)(=O)c3cccnc3)CC2)CC1	11.1%
Cc1csc(NC(=O)c2ccco2)n1	3.48%
O=C(/C=C/c1ccc(F)cc1)NNC(=O)CCN1CCN(Cc2ccccc2)CC1	-10.3%
COc1ccc2ccccc2c1CN1CCSCC1	18.2%
CN1CCN(C=Nc2nc3ccccc3nc2N2CCCC2)CC1	5.62%
O=S1(=O)CCN2C=Nc3sc4c(c3C2=N1)CCCC4	9.11%
Cc1onc(-c2c(Cl)cccc2Cl)c1C(=O)NNc1ccccc1	10.8%
Nc1nonc1-n1nnc(C(=O)N/N=C/c2ccoc2)c1CSc1ccccc1	17.6%
CC(=O)Oc1ccccc1/C=C/c1nc2ccccc2c(=O)o1	13%
CCOC(=O)c1ccc(NC(=O)Cn2c(=O)oc3ccccc32)cc1	12.5%

Compound	hERG current change (%, negative = inhibition) at 1uM
CCn1c(SCC#N)nc2cc(S(=O)(=O)N3CCOCC3)ccc21	7.91%
CCCCCCSc1nnc(N)s1	7.6%
O=C(Cn1cc(C(=O)C2CC2)c2ccccc21)Nc1ccccc1Cl	13.6%
CCCn1nnnc1SCC(=O)N1CCOCC1	13.9%
Cn1nnnc1SCc1nnc(-c2ccccc2Br)o1	7.49%
COC(=O)c1cccc(NC(=O)CCc2ccccc2)c1	6.88%
O=C(CSc1nnc(-c2c[nH]c3ccccc23)o1)N1CCCCC1	6.5%
O=[N+]([O-])c1ccc(S(=O)(=O)N2CCN(c3ccnc4cc(Cl)ccc34)CC2)cc1	-77.8%
Cc1cccc(NC(=S)NC(C)(C)CC(C)(C)C)c1	11.3%
COc1ccc(N2CCN(C(=O)CCc3ccc(S(=O)(=O)NC(C)C)cc3)CC2)cc1	7.41%
CCOC(=O)c1c(NC(C)=O)sc(/C(C)=N/Nc2ccc(C(=O)O)cc2)c1C	12.7%
CCc1ccc(CNC(=O)C2CCN(S(=O)(=O)N3CCCC3)CC2)cc1	3.4%
Cc1ccc(C(=O)Nc2ccccc2SCC2CSc3nc4ccccc4c(=O)n32)cc1 (centres unmarked)	-39%
COc1ccc(-c2[nH]nc3c2C(c2ccoc2)C(C#N)=C(N)O3)cc1 (centres unmarked)	3.52%
COc1ccc(/C=N/NC(=O)CCNc2n[nH]c(=O)[nH]c2=O)c(OC)c1	17.6%
COc1ccc(OC)c2sc(NNC(=O)C3COc4ccccc4O3)nc12 (centres unmarked)	-7.04%
Cc1ccc(-c2csc(NC(=O)c3cccc([N+](=O)[O-])c3C(=O)O)n2)cc1	-6.09%
COc1ccc2nc(NC(=O)CN(c3ccc(C)cc3)S(=O)(=O)c3c(C)nn(C)c3C)sc2c1	-5.46%
O=C(CCNC(=O)c1ccccc1Cl)Nc1cccc(C(F)(F)F)c1	3.66%
C(=N\n1cnnc1)/c1cccnc1	3.86%
CCCNc1ncnc2nc[nH]c12	-3.01%
CCOC(=O)C1CCCN(C(=O)c2ccc3c(=O)n(Cc4ccccc4OC)c(=S)[nH]c3c2)C1 (centres unmarked)	15.4%
CCc1cccc(NC(=S)N2CCC(c3ccccc3)C2)c1 (centres unmarked)	10.5%
